The RNAGym collection of RNA variant scans (doi:10.7554/elife.90254)
Read counts are not given, so values of variants with three or more changes are uncertain.

B1: LINE1-mini (parent)
chain: GGCAGAGCUCAACACAGCGUGGCAAAGUGGCUGUGGCUAGACUGCC

Variants of: B1
Experiment: self-cleavage, relative activity (ratio to wild type); higher = more cleavage; in vitro, sequencing; the parent is a self-cleaving ribozyme

Row | Variant | self-cleavage
1 | CGCAGAGCUCUACACAGCGUGGCAAAGGGGCUGUGGCUAGACUGCC [G1C A11U U28G] | 0.02
2 | GGCAGAGUUCAAAACAGCGUGGCAAGGUGGCUGUGGCUAGACUGCC [C8U C13A A26G] | 0.33
3 | GGCAGAGCUCCACACAGCGCGGCAAAGUGGCUGAGGCUAGACUGCC [A11C U20C U34A] | 0.01
4 | GGCAGACCUCAACACAGCGUGGCAAAGUGACUUUGGCUAGACUGCC [G7C G30A G33U] | 0.06
5 | GGCAGAACUCAACACGACGUGGCAAAGUGGCUGUGGCUAGACUGCC [G7A A16G G17A] | 0.29
6 | GUCAGAGCUCAACACAGCGAGGUAAAGUGGCUGUGGCUAGACUGCG [G2U U20A C23U C46G] | 0.19
7 | GGCAGAGCUCAACACAGCGUGGCCAAGUGGCUUUCGCUAGACUGCC [A24C G33U G35C] | 0.19
8 | GGCAGAGCUCAACACAGCCUGGCAAAGUGGUUGUGGCUUGACUGCC [G19C C31U A39U] | 0.25
9 | GGCAGAGCUUAACACAGCGUGGCAAAGCGGCAGUGGCUAGAAUGAC [C10U U28C U32A C42A C45A] | 0.04
10 | GGCGGAGCUCAACACAGCGUGGCCAAGUGUCUGUGGCUUGACUGCA [A4G A24C G30U A39U C46A] | 0.03
11 | UGCAGAGCUCAACACAGCGUGGCAAAGGGGCUGUGGCUAGUCUGCC [G1U U28G A41U] | 0.21
12 | GGCAGAGCUCAACACGGUGUGGCAAAGUGGCUGUGGCUAGACUGCA [A16G C18U C46A] | 0.06
13 | GGCAGAGCUCAACACACCAUGGCAAAGUGACUGUGGGUAGACUGCC [G17C G19A G30A C37G] | 0.01
14 | GGCACAGCUCAACACAACGUGGCAAAGCGGCUGUGGCUAGACUGCC [G5C G17A U28C] | 0.02
15 | GGCAGAGCAAAAUACAGCGUGGCAAAGUGGCUGUGGCUAGACUGCC [U9A C10A C13U] | 0.03
16 | GGUAGAGCUCAACACAGGGUGGCAAAGUCUCUGUGGCUAGACUGCC [C3U C18G G29C G30U] | 0.06
17 | AGCAGAGCUAAACACAGCGUGGCCAAGUUGCUGUGGUUAGACUGCC [G1A C10A A24C G29U C37U] | 0.02
18 | GGCAGAGCUCAACACAGCAUGGCAAAGUGGCUGUGGCUAGAAAGCC [G19A C42A U43A] | 0.04
19 | GGCAGAGCUCAACACUGCGUGGCAAAGUUGCUGUGGCUAGACUACC [A16U G29U G44A] | 0.26

Row | Variant | self-cleavage
20 | GACAGAGCUCAACACAGCGUGGCAAACAAGCGGUGGGUAGACAGCC [G2A G27C U28A G29A U32G C37G U43A] | 0.09
21 | GCCAGAGCUCAACACAGCGUAGCAAAGUGGCUGUGGGUAGACUGCC [G2C G21A C37G] | 0.17
22 | GGCAGAGUUCAACACAGCGUAGCAAAUUGGCUGUGGCUAGUCUGCC [C8U G21A G27U A41U] | 0.41
23 | GGCAGACCUCAACACAGCGUAGAAAAGUGUCUGUCGCUACACUGCC [G7C G21A C23A G30U G35C G40C] | 0.02
24 | GGCAGAGCUAAACACUGCGUGGCAAAGUGGCUGUGGCUAUACUGGC [C10A A16U G40U C45G] | 0.01
25 | GGCAGAGCUCAAGACAGCCUGGCAAAGUGGCUGUGACUAGACUGCC [C13G G19C G36A] | 0.03
26 | GGUAGAGCUCAACACAGCGUGGCUAAGUGGCGGUGGAUAGAUUGCC [C3U A24U U32G C37A C42U] | 0.08
27 | GGCAGAGCUCAACACUGCGUGGCAAAGUGGAUGUGGCUACACUGCU [A16U C31A G40C C46U] | 0.01
28 | GGCAGAGCACAACACAGCGUGGCAAAGUGGCUGAAGCUAGACUGCC [U9A U34A G35A] | 0.11
29 | GGUAGAGCUCAACACAGCGUGGCUAAGUGGCUGUGGCUCGACUGCC [C3U A24U A39C] | 0.11
30 | UGCAGAUCUAAACACAGCGUGGCAAAGUGGCUGUGGCUAGCCUGCC [G1U G7U C10A A41C] | 0.02
31 | GGCAGAGCUGAACACAGCGUGGCAAAGUGGCUGUGGCUACACUCCC [C10G G40C G44C] | 0.02
32 | AACAGAGCUCAACACAGCGUGGCAAAGUCGCUGUGGCUUGACUGCC [G1A G2A G29C A39U] | 0.05
33 | GGAAGAGCUCAACACUGCGUGGCAAAGUGGCUGUGGCUACACUGCC [C3A A16U G40C] | 0.13
34 | GGCAGAGCUCCACACAGCGUGGCAAACUGACUAUGGCUAGACUGCC [A11C G27C G30A G33A] | 0.01
35 | GGUAGAGCUCAAAACAGCGUGGCAAAGUGCGUCUGGUUAGACUGCC [C3U C13A G30C C31G G33C C37U] | 0.03
36 | GGCAGAGCUCAACACAGCGUGACAAAGUGUCUGUGGCUAGACCGCC [G22A G30U U43C] | 0.05
37 | GGCAGAACUCAACACAGUGUGUCAAAGUGGCUGUCGCUUGAAUGUC [G7A C18U G22U G35C A39U C42A C45U] | 0
38 | GGUAGAGCUCAACACAGCCUGGCAAAGUCGCUGUGGCUAGACUGCC [C3U G19C G29C] | 0.5

Row | Variant | self-cleavage
39 | GGCAGAGCUCAACACAGCGUGGCAGAGUGACAGUGGCUAGACUGCC [A25G G30A U32A] | 0.06
40 | GGCAGAGCCCAAUCCAGCGUGACAAAGUGGCGGUGGCUAGUCUGCC [U9C C13U A14C G22A U32G A41U] | 0
41 | GGCAGAGCUCAACACAGAGUUGCAAAGUGGCUGUGGCUAGACUGAC [C18A G21U C45A] | 0.44
42 | GGCAGGGCUCAACACAGCGUGGCAAAGUGGCUUUUGCUAGACUGCC [A6G G33U G35U] | 0.02
43 | GGCAGAACUCAACACAGCGUGGCAAAGUGGCUGUGGCUAGACUUCU [G7A G44U C46U] | 0.14
44 | GUAAGAGCUCAACACAGCCUGGCAAAGUGGCUGUGGCUAGACUGCC [G2U C3A G19C] | 0.2
45 | GGCAGAGCUCAACACGACGGGGCAAAGUGGCUGUGGCUAGACUGCC [A16G G17A U20G] | 0.03
46 | GGCAGAAAUCAACACAGCCUGGCAAAGAGGCUGUGGCUAGACGGCC [G7A C8A G19C U28A U43G] | 0.01
47 | GGCAGAGCUCAACACAGCGUGCCAAAGAGGCUGUGGCUAGACUGGC [G22C U28A C45G] | 0.09
48 | GCCAGAGCUCAACACAGCGUGUCAAAGUGGCUGUGGCUAGAAUUCC [G2C G22U C42A G44U] | 0.09
49 | GGCAGAGCUCAACACAGCGUGGCAAACUGGCUGUGGUUAGAAUGCC [G27C C37U C42A] | 0.06
50 | GGCAGAGCUCAACACCGCGCGGUAAAGUGGCUGUGGCUAUACUGCC [A16C U20C C23U G40U] | 0.01
51 | GGCAGAGCUCAUCACAGAGUGGCAAAGUGGCUGUGGCUAGACGGGC [A12U C18A U43G C45G] | 0.02
52 | GGCAGAGCUCAACACGGCGCGUCAAAGUGGCUGUGGCUAGACUGCC [A16G U20C G22U] | 0
53 | GGCAGAGCUCAACACAGCGUGGCUAAGUGGCUGUGGCUAGUGUGCC [A24U A41U C42G] | 0.16
54 | GGCAAAGCUCGACACAGCGUGGCAAAGGGGCUGUGGCUAGACUGCU [G5A A11G U28G C46U] | 0.01
55 | GGCAGAGCUCAAAACAGCGUGGCGAAAUGGCUUUGGCUAGACUGCC [C13A A24G G27A G33U] | 0.01
56 | GGCAUAGCGCAACACAGCGUGGAAUAGUGGCUGUGGCUAGACUGCC [G5U U9G C23A A25U] | 0.03
